Laboratory results as given in PubChem BioAssay AID1508623 (National Center for Advancing Translational Sciences (NCATS), 2021).
Screen size: about 48,000 compounds; about 450 (0.94%) were called active. Not shown: some 19% with an inconclusive outcome. Calls come from the whole dose curve; as a rule, active = well fitted inhibition curve with a large enough effect; inconclusive = small, poorly fitted or top-dose-only effect; inactive = no such curve, though single readings can be large or run the other way. The list shows a part of the results.

Test: Primary qHTS for Identification of Small Molecule Inhibitors of Huntingtin Promoter Activity; note: nearly all actives have a fitted effect of over 50% in size
Conditions: HEK293 HTT promoter firefly luciferase reporter (activity 0% = vehicle and -100% = no light), 24 h; series mostly up to 57.5 µM; activity change, negative = inhibition: at the top concentration
Outline: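 Firefly luciferase readout (Dual-Glo, 10 min RT) after 24 h, 37 °C compound exposure (final up to 57.5 uM) of HEK293 reporter cells cultured 24 h beforehand; PTC124 at 50 uM final as control inhibitor; activity scaled vehicle 0%, zero RLU -100%.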

Activity change, negative = inhibition, inactive:
Cc1cc(Nc2ccccc2C)c2cccc(C)c2n1 -11.2%, COCCCN1CCC(NC(=O)c2cc(Cl)c(N)c3c2OCC3)CC1, CCC(C)n1c(SCC(=O)Nc2ccccc2C(=O)OC)nc2ccsc2c1=O (configuration not stated) -6.97%, CCc1ccc(NC(=O)C2CCCN(S(=O)(=O)c3ccc4c(c3)oc(=O)n4C)C2)cc1 (configuration not stated) -16.9%, Cc1ccc(C(=O)NCC(c2ccc(Cl)cc2)N2CCCCC2)cc1 (configuration not stated) -17.6%, COCCCNC(=O)CCCn1c(SCC(=O)c2ccc(Br)cc2)nc2c(sc3ccccc32)c1=O -3.52%, Cc1ccc(Cl)c2sc(NC(=O)c3ccc(S(=O)(=O)N4CCCC4)cc3)nc12 -11.2%, COc1cccc(CNC(=O)c2cccc(N3CCCS3(=O)=O)c2)c1 -29.3%, Cc1ccc(C)c(NC(=O)CSc2nc3ccccc3nc2N2CCOCC2)c1 -1.18%, CC(C)(C)OC(=O)N1CCC(c2c(C(=O)N3CCCCC3)cnn2-c2ccc(F)cc2)CC1 -7.5%, COC(=O)c1ccc(NC(=O)c2cnn(-c3ccc(Cl)cc3)c2C2CCN(C(=O)OC(C)(C)C)CC2)cc1 5.5%, COc1ccccc1C(=O)Nc1cccc(OCc2cc(=O)n3ccccc3n2)c1 22%, Cc1cc(C)c(NC(=O)c2cc(C)nc3c2c(C)nn3-c2cccc(F)c2)c(C)c1 -2.48%, Cc1cc2oc(C(=O)N(Cc3ccc(Cl)cc3)Cc3ccco3)c(C)c2cc1Cl -25.6%, CCc1ccc(-c2nn(-c3ccc(OC)cc3)c3c2cnc2ccc(OC)cc23)cc1 -10.1%, O=C(CSc1nccn1Cc1ccc2c(c1)OCO2)Nc1ccccc1F -15.7%, CCCn1c(=O)sc2cc(NC(=O)c3ccccc3Cl)ccc21 -3.19%, COc1cc(NC(=O)CCn2nc(C)cc2C)cc(OC)c1OC 4.19%, CCC1CCCCN1CCCNC(=O)c1cn(C)c2ccc(S(=O)(=O)N(C)C3CCCCC3)cc2c1=O (configuration not stated) -22.8% [at 11.5 µM], COc1cccc(N2CCN(C(=O)c3cccn3-c3nnc(N4CCCCC4)s3)CC2)c1 -9.68%, COc1cc(/C=C(/C#N)c2nc(-c3cc4ccccc4oc3=O)cs2)ccc1O 18%, Cc1cccc(NC(=O)CSc2nc3c([nH]c4ccccc43)c(=O)n2-c2cc(C)cc(C)c2)c1 -4.09%, Cc1c(Cl)cccc1NC(=O)Nc1c[nH]c(=O)[nH]c1=O 6.86%, CC1CCCCN1C(=O)CSc1nc(-c2ccccc2)no1 (configuration not stated) 56.5%, CSc1cccc(-n2nnc(-c3nsc(NC(=O)c4cccs4)n3)c2C)c1 12.1%, CCOC(=O)c1ccccc1NC(=O)CSc1nc(=O)[nH]c2c1CCCC2 -5.53%, CCc1ccc2occ(CC(=O)N(Cc3ccccc3)C3CCS(=O)(=O)C3)c2c1 (configuration not stated) -16.7%
